Results on 103 molecules are retold here after PMC6919601, “Identification of Plasmodium dipeptidyl aminopeptidase allosteric inhibitors by high throughput screening” (PLoS ONE, 2019).

The structures appear in SMILES notation. The campaign covered roughly 110,000 compounds. About 230 (0.21%) showed an effect of 50% or more. Some of the results follow.
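Further: 30 min substrate incubation versus DMSO and 10 µM JCP410 controls.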

DPAP1, sequence (Q8IIJ9 whole entry, looked up): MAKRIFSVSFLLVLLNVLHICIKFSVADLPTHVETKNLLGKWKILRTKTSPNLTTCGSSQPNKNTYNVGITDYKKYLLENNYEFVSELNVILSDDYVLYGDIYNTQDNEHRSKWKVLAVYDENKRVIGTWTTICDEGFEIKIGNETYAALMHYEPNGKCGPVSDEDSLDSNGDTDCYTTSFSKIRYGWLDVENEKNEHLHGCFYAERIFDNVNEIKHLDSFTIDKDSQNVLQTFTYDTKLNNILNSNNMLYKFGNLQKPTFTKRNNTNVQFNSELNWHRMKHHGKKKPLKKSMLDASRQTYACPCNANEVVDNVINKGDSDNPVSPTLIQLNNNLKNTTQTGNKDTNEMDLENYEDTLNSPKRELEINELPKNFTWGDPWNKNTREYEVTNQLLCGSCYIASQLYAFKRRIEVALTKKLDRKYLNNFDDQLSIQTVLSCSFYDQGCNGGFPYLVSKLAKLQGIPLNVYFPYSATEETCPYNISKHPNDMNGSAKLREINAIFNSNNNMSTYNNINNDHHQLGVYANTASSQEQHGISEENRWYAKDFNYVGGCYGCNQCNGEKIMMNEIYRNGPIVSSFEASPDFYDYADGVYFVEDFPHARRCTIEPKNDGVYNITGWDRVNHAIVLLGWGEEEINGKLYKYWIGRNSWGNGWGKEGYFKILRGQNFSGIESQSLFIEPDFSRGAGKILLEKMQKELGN

The assay has as its target DPAP1 (Plasmodium falciparum, UniProt Q8IIJ9). Description: primary screen, percent inhibition; read by cleavage of a fluorogenic dipeptide substrate; higher = more effect of the substance. Further details: species or system P. falciparum D10 trophozoite lysates; single well.
`CC1CCC(N[C@H]2CC[C@H](O)CC2)C1` (stereo partly shown): the “% Inhibition @ 10 uM” value stood at 0.273%. Then `COc1ccccc1C(=O)NCc1nc(-c2ccccc2)no1`, with 2.14%. Next, `CCOC(=O)c1cnc2cc(OC)ccc2c1O`: -0.711%. Then `CCOC(=O)c1ccc(-c2ccc(C=C3C(=O)c4ccccc4C3=O)o2)cc1`, with -2.15%. `CO/C(O)=C1/C(C)=NC2=C(C(=O)CC(c3ccccc3)C2)C1c1ccc(O)cc1` (stereo not shown): the “% Inhibition @ 10 uM” value came out at 7.53%. As to `COc1ccc(CNC(=O)C(CS(=O)(=O)Cc2ccccc2)N2Cc3ccccc3C2=O)cc1` (stereo not shown), the “% Inhibition @ 10 uM” value is 6.74%. Then `CC1(C)CC(=O)C(C(=N)NC(=O)c2ccccc2)=C(O)C1`, with -9.24%; and `O=C(Cn1ncc2c(=O)oc3ccccc3c21)Nc1nccs1`, with 1.24%; and `Cc1ccc(-c2cs/c(=N\c3cccc(Cl)c3)n2CCO)cc1`, with 4.74%. Then `CCOc1cc(/C=C/C(=O)O)ccc1OCc1ccccc1C#N`, with -0.339%. Next, `COc1cccc(-n2ccc3ccccc32)c1`: -3.58%; `Cc1ccc(CN2C(=O)CCC2C(=O)NCCCN2CCC(Cc3ccccc3)CC2)cc1` (stereo not shown): 3.24%. As for `CCc1c(C)sc(NC(=O)c2cc(OC)c(OC)c(OC)c2)c1C(N)=O`, the “% Inhibition @ 10 uM” value is reported as 22.9%.

For `CCc1ccc(-c2cc3c(=O)n(CC(=O)NCCc4ccc(Cl)cc4)nc(C)n3n2)cc1`, the “% Inhibition @ 10 uM” value is listed as -1.08%.

Take `NC(=O)C1CCCN(C2CCN(CCc3ccccc3)CC2)C1` (stereo not shown): the “% Inhibition @ 10 uM” value was 5.03%. Then `CCN(CC)C(=O)c1csc(-c2ccccc2)c1-c1ccccc1`, with 5.98%; and `Fc1nc(N2CCCC2)c(F)c(Oc2ccc(Br)cc2)c1F`, with -1.6%; and `CC(C)(C)C1CCc2c(sc(NC(=O)c3ccc(Cl)cc3)c2C(=O)NCCO)C1` (stereo not shown), with 0.24%. Regarding `O=C(c1cccnc1)N1CCN(C(=O)c2ccco2)CC1`, the “% Inhibition @ 10 uM” value amounted to 7.1%. Next, `O=C(CCC(=O)N1CC=C(c2c[nH]c3ccccc23)CC1)NC1CCCCCC1`: 1.31%; `COc1ccc(CN(C(=O)c2oc3ccccc3c2C)C2CCS(=O)(=O)C2)cc1` (stereo not shown): -6.94%. Consider `Cn1cccc1Cc1nnc(SCC(=O)NCc2ccc(F)cc2)n1CCc1ccccc1`, for which the “% Inhibition @ 10 uM” value worked out at 5.77%. Then `COc1ccccc1Nc1nc2c(s1)CCC2`, with 3.69%; and `NC(=S)C1COc2ccccc2O1` (stereo not shown), with 6.12%. Next, `COc1cc(Cl)cc(/C=C2/NC(=O)N(c3cccc(Cl)c3)C2=O)c1O`: -1.51%; `O=C(CSc1nnnn1-c1ccccc1)Nc1nsc(-c2ccc(Cl)cc2)n1`: 0.778%; `CCOc1ccccc1C(=O)Nc1cc(C)cc(C)c1`: -5.99%. In the case of `CCOc1ccc2[nH]c3nc4ccccc4nc3c2c1`, the “% Inhibition @ 10 uM” value is -3.75%. For `O=C1OC(c2ccccc2Br)=N/C1=C\c1ccc(Br)o1`, the “% Inhibition @ 10 uM” value is reported as -0.48%. As to `Cc1nn(C(=O)c2cccs2)c(C)c1NC(=O)c1cccs1`, the “% Inhibition @ 10 uM” value was determined as 4.61%. Next, `CCOC(=O)C1=C(CS(=O)(=O)c2ccc(C)c(C)c2)NC(=O)NC1c1ccc(OCC)cc1` (stereo not shown): -0.431%. Consider `NC(=O)c1c(NC(=O)COc2ccccc2Cl)sc2c1CCCCCC2`, for which the “% Inhibition @ 10 uM” value is 3.69%. Regarding `O=c1oc2ccccc2c2oc3cc(O)c(O)cc3c12`, the “% Inhibition @ 10 uM” value was found to be 5.12%. Then `Cc1ccc(C)c(OCCCCc2c(C)n[nH]c2C)c1`, with 0.0792%; and `Cc1[nH]ncc1N1C(=O)c2cccc3c(Cl)ccc(c23)C1=O`, with -2.02%. In the case of `Cc1ccccc1NCC(=O)Nc1c(C)cccc1C`, the “% Inhibition @ 10 uM” value is given as -3.77%.

In the case of `O=C(O)CNC(=O)/C(=C\c1ccco1)NC(=O)c1ccccc1`, the “% Inhibition @ 10 uM” value is reported as -2.26%. Turning to `Cc1c(CCC#N)c(Cl)n2c(nc3ccccc32)c1C#N`, the “% Inhibition @ 10 uM” value is recorded as -4.49%.

On to `Cn1cnc2c1c(=O)n(Cc1ccccc1C#N)c(=O)n2C`, for which the “% Inhibition @ 10 uM” value is 2.95%.

As for `CCOc1ccc(C2NC(S)=NC(C)=C2C(=O)OC)cc1` (stereo not shown), the “% Inhibition @ 10 uM” value is 0.736%. Next, `Cc1cc(NC(=O)c2cccc(COc3cc(Cl)ccc3Cl)c2)no1`: -4.77%; `COc1ccc(OC)c(NC(=O)c2ccccc2C)c1`: -6.67%; `O=C(CCCCCNc1nc(S)nc2ccccc12)NCCc1c[nH]c2ccccc12`: 6.89%.

Regarding `c1cc2nc(C34CC5CC(CC(C5)C3)C4)[nH]c2cn1`, the “% Inhibition @ 10 uM” value is reported as 2.65%.

Consider `CCC1CCCCN1C(=O)c1cc2c(C)nn(-c3ccccc3)c2s1` (stereo not shown), for which the “% Inhibition @ 10 uM” value was 0.408%. For the molecule `CCC(NC(=O)c1csc2c1CCCC2)c1ccccc1` (stereo not shown), the “% Inhibition @ 10 uM” value is given as -0.992%. Next, `CC(C)CN1C(=O)c2ccccc2C(C(=O)N2CCC(N3CCCCC3)CC2)C1c1cccs1` (stereo not shown): 5.13%; `S=C1NCN(Cc2ccco2)CN1CC1CCCO1` (stereo not shown): -1.92%; `CCN(CC)CCNC(=O)c1ccc(CSc2nc3ccncc3n2Cc2ccccc2F)cc1`: 1.72%. Then `O=C1NC(=O)C(c2ccccc2)(c2ccccc2)C(=O)N1`, with -4.35%. Then `O=C(c1cc([N+](=O)[O-])ccc1Cl)N1CCN(c2cccc(Cl)c2)CC1`, with -1.56%; and `CCN(CCN(C)C)C1CCC(c2ccccc2)CC1` (stereo not shown), with 4.75%.

On to `CC(C)c1ccc(OCC(=O)Nc2ccccc2C#N)c(Br)c1`, for which the “% Inhibition @ 10 uM” value is listed as -2.34%. Next, `O=C(CC(c1ccccc1)c1cc(Br)ccc1O)N1CCCC1` (stereo not shown): -4.84%. Consider `CC(C)NC(=O)CN(Cc1ccccc1)S(=O)(=O)c1ccccc1`, for which the “% Inhibition @ 10 uM” value is listed as 1.81%. Then `COc1ccc2cc3c(N)nn(C(=O)/C=C/c4cccnc4)c3nc2c1`, with 4.68%; and `Cc1cc(C(c2cc(C)c(N)c(C)c2)c2ccco2)cc(C)c1N`, with -3.03%; and `CC(C)N(Cc1nc(-c2ccc(Cl)cc2)no1)C(=O)C(C)(C)C`, with 0.232%. For `C=CCO/C(O)=C1/C(C)=Nc2ncnn2C1c1cc(Br)ccc1OC` (stereo not shown), the “% Inhibition @ 10 uM” value was -3.37%. Next, `Cc1ccc(-n2cccc2C=C2C(=O)NC(=O)NC2=O)cc1Cl`: 1.91%; `COCc1c(Br)c(C)nc(OCC(=O)O)c1C#N`: 2.99%. Next, `CC(Cc1ccccc1F)NC1CCN(Cc2ccccc2)CC1` (stereo not shown): -3.5%. Then `CC(C)N1C/C(=C\c2ccc3nccnc3c2)C(=O)/C(=C/c2ccc3nccnc3c2)C1`, with 5.41%. Consider `COc1cc(NS(=O)(=O)c2ccc(NC(=O)c3cc(Cl)sc3Cl)cc2)nc(OC)n1`, for which the “% Inhibition @ 10 uM” value is on record as -3.46%. Then `N#C/C(=C\c1ccc(OCC(=O)O)c(Cl)c1)c1nc2ccccc2[nH]1`, with -5.2%; and `COCCCN1C(=O)S/C(=C/c2ccc(OC)c(OC)c2)C1=O`, with -1.44%; and `COc1ccc(Br)cc1CN1CCCC(C(=O)N2CCCCCC2)C1` (stereo not shown), with -2.98%. Next, `COc1ccc(/C=C2\N=C(c3c(-c4ccccc4)noc3C)OC2=O)c(OC)c1`: -2.6%; `Clc1ccc(-c2nc(-c3cccnc3)no2)c(Cl)c1`: 2.03%; `Cc1cc(C(=O)c2nc3c(n2O)CCCC3)ccc1Cl`: -1.81%. For the molecule `COc1ccc(C2=NC3(CCN(C(=O)c4ccccc4C)CC3)NC2=O)cc1`, the “% Inhibition @ 10 uM” value came out at 3.5%. Then `CCCCCCNC(=O)Cc1cccc2ccccc12`, with 0.238%.

Take `COc1cccc(/C=C2/N=C(c3cccc(Cl)c3Cl)OC2=O)c1OC`: the “% Inhibition @ 10 uM” value is on record as 2.28%.

As for `OCCC1CCCCN1C1CCCCCCC1` (stereo not shown), the “% Inhibition @ 10 uM” value is on record as -0.0908%. On to `CCc1ccc(-c2cc(C(F)(F)F)n3nc(C(=O)NCCCOC)cc3n2)s1`, for which the “% Inhibition @ 10 uM” value was -5.81%. Next, `O=C1C=C(N2CCOCC2)c2ccccc2C1=O`: -1.32%. Then `COc1ccc(C(=O)N2CCc3ccccc3C2)cc1`, with 3.84%. As for `Cn1c(C(=O)N2CCC(C(=O)NCc3ccccn3)CC2)cc2sccc21`, the “% Inhibition @ 10 uM” value is given as -3.35%. Turning to `CC(=O)c1cnc2c(-c3ccccc3)c(C)nn2c1C`, the “% Inhibition @ 10 uM” value was -0.13%. Then `COc1nccc(NCc2ccccc2)c1C#N`, with 4.16%. Next, `Cc1ccc(S(=O)(=O)Nc2cc(SCC(=O)O)c(O)c3ccccc23)c(C)c1`: 3.46%; `CCN1CCN(Cc2c[nH]c3ccccc23)CC1`: -0.405%. Next, `COc1ccc(C2(CNS(=O)(=O)c3ccccc3)CCCC2)cc1OC`: 0.587%; `O=C(Nc1ccccc1)c1nc[nH]c1C(=O)Nc1ccccc1`: 3.24%. Regarding `COc1ccccc1CN1CCN(Cc2ccc(F)cc2)CC1`, the “% Inhibition @ 10 uM” value is -5.29%.

Take `N#CC1=C(SCC(=O)Nc2nccs2)NC(=O)CC1c1ccccc1` (stereo not shown): the “% Inhibition @ 10 uM” value is -1.06%. Then `Cc1cc(OCC(=O)Nc2cccnc2)cc(C)c1Cl`, with 17%. Next, `Cc1ccc(-c2cn3nc(N4CCCC(C(=O)NCCN5CCCC5)C4)sc3n2)cc1` (stereo not shown): -0.878%; `O=C(NCc1ccccc1)c1scc2c1CCCC2`: 0.777%. In the case of `CCOC(=O)c1nnn(-c2nonc2N)c1C(F)(F)F`, the “% Inhibition @ 10 uM” value was determined as 3.25%. For the molecule `Cn1nc(C(=O)Nc2cccc(C(F)(F)F)c2)cc1C(=O)Nc1cccc(C(F)(F)F)c1`, the “% Inhibition @ 10 uM” value was determined as 3.35%. Next, `COc1ccc(-c2noc(CN(C(=O)COc3ccccc3C)C(C)C)n2)cc1`: -0.352%; `Cn1c2c(c(=O)n(C)c1=O)C(C(F)(F)F)(C(F)(F)F)NC(c1ccco1)=N2`: -2.29%. Then `COc1ccc(NS(=O)(=O)c2ccc(NC(=O)c3ccc(C)c(Br)c3)cc2)cc1`, with -2.76%. Next, `CCOC(=O)c1sc(NC(=O)c2cc(-c3ccccc3OC)on2)c(C(=O)OCC)c1C`: -2.65%. Regarding `O=C(c1cc2cc([N+](=O)[O-])ccc2oc1=O)N1CCOCC1`, the “% Inhibition @ 10 uM” value was -2.32%. For `CCNC(=O)C1c2ccccc2C(=O)N(CCOC)C1c1cccs1` (stereo not shown), the “% Inhibition @ 10 uM” value was determined as 9.08%. Then `O=S(=O)(c1ccccc1)c1cccc(S(=O)(=O)N2CCOCC2)c1`, with -3.55%; and `CCOC(=O)C1=C(C)N=C(N)SC1c1ccc(Cl)cc1` (stereo not shown), with 0.351%; and `CCN1CCN(c2nc3c(S(=O)(=O)c4ccc(C(C)C)cc4)nnn3c3ccsc23)CC1`, with -5.57%. Then `CC(C)(C)C(=O)Nc1noc2ccccc12`, with 2.19%; and `O=[N+]([O-])c1ccc(CN2CCN(c3ncccn3)CC2)cc1`, with 3.16%; and `CCOc1ccccc1C(=O)N1CC(C)N(C(=O)c2ccccc2OCC)CC1C` (stereo not shown), with -3.26%.
